A collection of fitness landscapes (doi:10.1016/j.celrep.2020.107928)
Whole data set: some 81,000 sequences, median “one-hybrid fitness for binding NBS DNA” near -0.1, cut for the highest 2% near 0.36. The list shows a part of the results.

B1: Caulobacter ParB omega fusion; a variant is named by its letters at X, in order, B8GW30 (parent)
chain: MESVVVGEPGMSEGRRGLGRGLSALLGEVDAAPAQAPGEQLGGSREAPIEILQRNPDQPRRTFREEDLEDLSNSIREKGVLQPILVRPSPDTAGEYQIVAGERAWRAAQRAGLKTVPIMVRELDDLAVLEIGIIENVQRADLNVLEEALSYKVLMEKFERTQENIAQTIGKSXSHVANXMRLLXLPDEVQSYLVSGELTAXHARAIAAAADPVALAKQIIEGGLSVRETEALARKAPNLSAGKSKGGRPPRVKDTDTQALESDLSSVLGLDVSIDHRGSTGTLTITYATLEQLDDLCNRLTRGI

Variants of: B1
Experiment: one-hybrid fitness for binding NBS DNA (the Noc-binding site; scaled: cognate 1, non-cognate 0); higher = stronger binding
Settings: with NBS DNA site
Summary of the method: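 Fitness is the rescaled log change in variant-to-wild-type read ratio, measured by Illumina sequencing of plasmids before and after bacterial one-hybrid selection. The scale puts cognate at 1 and non-cognate at 0. Selection of Caulobacter ParB libraries, four specificity codons randomised, took place in E. coli USO with a HIS3 reporter, site 19 bp from the promoter, over 48 hours at 37°C on M9-minus-histidine with 0.1 mM IPTG and 5 mM 3-AT.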

Row | Variant | one-hybrid fitness for binding NBS DNA
1 | MLIC | ≤ 0.2
2 | FEYF | ≤ 0.2
3 | GFHI | ≤ 0.2
4 | AHRP | ≤ 0.2
5 | QTCQ | ≤ 0.2
6 | ATLQ | ≤ 0.2
7 | RICL | ≤ 0.2
8 | HVHD | ≤ 0.2
9 | YCNS | ≤ 0.2
10 | TKDL | ≤ 0.2
11 | LDGI | ≤ 0.2
12 | QNKK | ≤ 0.2
13 | RPTN | ≤ 0.2
14 | CKSG | ≤ 0.2
15 | SDKV | ≤ 0.2
16 | CSLA | ≤ 0.2
17 | SGIG | ≤ 0.2
18 | PRAF | ≤ 0.2
19 | CVSV | ≤ 0.2
20 | RDEK | ≤ 0.2
21 | SQAT | ≤ 0.2
22 | VSRL | ≤ 0.2
23 | FTRA | ≤ 0.2
24 | QQSR | 0.635

Row | Variant | one-hybrid fitness for binding NBS DNA
25 | FSRE | ≤ 0.2
26 | RNLK | ≤ 0.2
27 | SWAM | ≤ 0.2
28 | EAYQ | ≤ 0.2
29 | SYNM | ≤ 0.2
30 | DLTA | ≤ 0.2
31 | PYHG | ≤ 0.2
32 | YYKN | ≤ 0.2
33 | DSAG | ≤ 0.2
34 | QSAG | ≤ 0.2
35 | VFTT | ≤ 0.2
36 | WVSS | ≤ 0.2
37 | AMVN | ≤ 0.2
38 | SEAL | ≤ 0.2
39 | GHWG | ≤ 0.2
40 | RCRH | 0.46
41 | RCDG | ≤ 0.2
42 | SPSE | ≤ 0.2
43 | YEVT | ≤ 0.2
44 | FPQR | ≤ 0.2
45 | QMDC | ≤ 0.2
46 | TRTN | ≤ 0.2
47 | DTEV | ≤ 0.2
48 | KLWA | ≤ 0.2

Row | Variant | one-hybrid fitness for binding NBS DNA
49 | HYYT | ≤ 0.2
50 | SSVW | ≤ 0.2
51 | GRTM | ≤ 0.2
52 | WIGS | ≤ 0.2
53 | QGSG | ≤ 0.2
54 | NTEV | ≤ 0.2
55 | NVHS | ≤ 0.2
56 | QAVM | ≤ 0.2
57 | TGSW | ≤ 0.2
58 | SVVW | ≤ 0.2
59 | QSCG | ≤ 0.2
60 | IGSC | ≤ 0.2
61 | RFEL | ≤ 0.2
62 | QSAT | 0.395
63 | QNVR | ≤ 0.2
64 | YRQQ | ≤ 0.2
65 | LMGG | ≤ 0.2
66 | TAYS | ≤ 0.2
67 | YLYN | ≤ 0.2
68 | EIFC | ≤ 0.2
69 | SPHR | ≤ 0.2
70 | RYIE | ≤ 0.2
71 | YVTC | ≤ 0.2
72 | LWTC | ≤ 0.2

Row | Variant | one-hybrid fitness for binding NBS DNA
73 | PYRL | ≤ 0.2
74 | QMRF | 0.303
75 | DSFG | ≤ 0.2
76 | EVAS | ≤ 0.2
77 | NDIW | ≤ 0.2
78 | SYWW | ≤ 0.2
79 | NIKP | ≤ 0.2
80 | MLAM | ≤ 0.2
81 | IMTS | ≤ 0.2
82 | VFHV | ≤ 0.2
83 | CRYY | ≤ 0.2
84 | DLLN | ≤ 0.2
85 | KGMA | ≤ 0.2
86 | REAA | ≤ 0.2
87 | LPKT | ≤ 0.2
88 | MTYL | ≤ 0.2
89 | HVTS | ≤ 0.2
90 | TSRG | ≤ 0.2
91 | HHDW | ≤ 0.2
92 | TQRI | ≤ 0.2
93 | LHPI | ≤ 0.2
94 | VNPT | ≤ 0.2
95 | AYRC | ≤ 0.2
96 | HRCY | ≤ 0.2

Row | Variant | one-hybrid fitness for binding NBS DNA
97 | KKSK | ≤ 0.2
98 | LTTY | ≤ 0.2
99 | QGPL | ≤ 0.2
100 | CALG | ≤ 0.2
101 | VENY | ≤ 0.2
102 | QYQY | ≤ 0.2
103 | LIHS | ≤ 0.2
104 | FINV | ≤ 0.2
105 | SLVK | ≤ 0.2
106 | YPTE | ≤ 0.2
107 | TMTG | ≤ 0.2
108 | FHAF | ≤ 0.2
109 | PSWW | ≤ 0.2
110 | LLKG | ≤ 0.2
111 | QYAA | 0.237
112 | YYHT | ≤ 0.2
113 | EAVY | ≤ 0.2
114 | SRPT | ≤ 0.2
115 | CMYE | ≤ 0.2
116 | MNVL | ≤ 0.2
117 | PVIL | ≤ 0.2
118 | GFTG | ≤ 0.2
119 | IQSS | ≤ 0.2
120 | PLQM | ≤ 0.2

Row | Variant | one-hybrid fitness for binding NBS DNA
121 | HYLA | ≤ 0.2
122 | QGEE | ≤ 0.2
123 | CLWF | ≤ 0.2
124 | EVYT | ≤ 0.2
125 | AVRC | ≤ 0.2
126 | TRSS | ≤ 0.2
127 | LSMS | ≤ 0.2
128 | KQSL | ≤ 0.2
129 | RCIK | ≤ 0.2
130 | LVSS | ≤ 0.2
131 | PPSS | ≤ 0.2
132 | LKTY | ≤ 0.2
133 | EQWV | ≤ 0.2
134 | RWQP | ≤ 0.2
135 | YRYM | ≤ 0.2
136 | SLIW | ≤ 0.2
137 | VNSM | ≤ 0.2
138 | RMLA | ≤ 0.2
139 | SKTW | ≤ 0.2
140 | HKMG | ≤ 0.2
141 | WGDC | ≤ 0.2
142 | WLTS | ≤ 0.2
143 | TFPL | ≤ 0.2
144 | CVCS | ≤ 0.2

Row | Variant | one-hybrid fitness for binding NBS DNA
145 | AIDG | ≤ 0.2
146 | SIQE | ≤ 0.2
147 | QRKW | 0.411
148 | CQPC | ≤ 0.2
149 | TEIS | ≤ 0.2
150 | LTHN | ≤ 0.2
151 | TYPS | ≤ 0.2
152 | DLRN | ≤ 0.2
153 | QCLE | ≤ 0.2
154 | KGSR | ≤ 0.2
155 | TCIS | ≤ 0.2
156 | TGLW | ≤ 0.2
157 | WKHG | ≤ 0.2
158 | HSHR | ≤ 0.2
159 | PVMT | ≤ 0.2
160 | GERW | ≤ 0.2
161 | CVQE | ≤ 0.2
162 | DIRK | ≤ 0.2
163 | QAFE | ≤ 0.2
164 | VYAN | ≤ 0.2
165 | RHPM | ≤ 0.2
166 | HCGM | ≤ 0.2
167 | QLPK | ≤ 0.2
168 | ARAC | ≤ 0.2

Row | Variant | one-hybrid fitness for binding NBS DNA
169 | EACR | ≤ 0.2
170 | RTTI | ≤ 0.2
171 | DRNG | ≤ 0.2
172 | KYPQ | ≤ 0.2
173 | RMRK | 0.223
174 | NIRC | ≤ 0.2
175 | PMDT | ≤ 0.2
176 | TRLN | ≤ 0.2
177 | DDKH | ≤ 0.2
178 | QQWR | 0.514
179 | LCHG | ≤ 0.2
180 | QAIH | ≤ 0.2
181 | DCHV | ≤ 0.2
182 | CPDA | ≤ 0.2
183 | AWYY | ≤ 0.2
184 | TVFR | ≤ 0.2
185 | TFER | ≤ 0.2
186 | EGDS | ≤ 0.2
187 | PPCC | ≤ 0.2
188 | QEEF | ≤ 0.2
189 | CYHS | ≤ 0.2
190 | WRAP | ≤ 0.2
191 | PFPQ | ≤ 0.2
192 | CNMP | ≤ 0.2

Row | Variant | one-hybrid fitness for binding NBS DNA
193 | RLFF | ≤ 0.2
194 | LMKR | ≤ 0.2
195 | LQLS | ≤ 0.2
196 | LGIC | ≤ 0.2
197 | HSME | ≤ 0.2
198 | RNGT | ≤ 0.2
199 | PYPM | ≤ 0.2
200 | LLHE | ≤ 0.2
201 | RDPM | ≤ 0.2
202 | QGYE | ≤ 0.2
203 | PIMA | ≤ 0.2
204 | MSSC | ≤ 0.2
205 | QDCV | ≤ 0.2
206 | THHT | ≤ 0.2
207 | QETP | ≤ 0.2
208 | HLSM | ≤ 0.2
209 | EKQT | ≤ 0.2
210 | DYAS | ≤ 0.2
211 | DNYY | ≤ 0.2
212 | PHMV | ≤ 0.2
213 | GATT | ≤ 0.2
214 | MKYT | ≤ 0.2
215 | GWKG | ≤ 0.2
216 | YQRG | ≤ 0.2

Row | Variant | one-hybrid fitness for binding NBS DNA
217 | EYSG | ≤ 0.2
218 | TNQG | ≤ 0.2
219 | WPTQ | ≤ 0.2
220 | SVGC | ≤ 0.2
221 | MSIT | ≤ 0.2
222 | KIGS | ≤ 0.2
223 | VAND | ≤ 0.2
224 | VYMT | ≤ 0.2
225 | RDSD | ≤ 0.2
226 | NKDI | ≤ 0.2
227 | RACL | ≤ 0.2
228 | PTHK | ≤ 0.2
229 | IPTY | ≤ 0.2
230 | HARP | ≤ 0.2
231 | PNNL | ≤ 0.2
232 | HDSW | ≤ 0.2
233 | WATR | ≤ 0.2
234 | NALG | ≤ 0.2
235 | PGGP | ≤ 0.2
236 | IWKS | ≤ 0.2
237 | GRKS | ≤ 0.2
238 | TAET | ≤ 0.2
239 | VHNI | ≤ 0.2
240 | TSSH | ≤ 0.2

Row | Variant | one-hybrid fitness for binding NBS DNA
241 | ASPF | ≤ 0.2
242 | CTNE | ≤ 0.2
243 | YMYL | ≤ 0.2
244 | LMVK | ≤ 0.2
245 | QYKI | 0.289
246 | TPEE | ≤ 0.2
247 | QGAG | ≤ 0.2
248 | GYDC | ≤ 0.2
249 | QNLG | ≤ 0.2
250 | TFQI | ≤ 0.2
251 | TCKT | ≤ 0.2
252 | SLWN | ≤ 0.2
253 | RRIR | 0.686
254 | RNQW | ≤ 0.2
255 | LICF | ≤ 0.2
256 | CHHT | ≤ 0.2
257 | TIHI | ≤ 0.2
258 | MCLC | ≤ 0.2
259 | IKDG | ≤ 0.2
260 | GAKW | ≤ 0.2
261 | NSQR | ≤ 0.2
262 | KGRI | ≤ 0.2
263 | DGAY | ≤ 0.2
264 | GKDW | ≤ 0.2

Row | Variant | one-hybrid fitness for binding NBS DNA
265 | MFDR | ≤ 0.2
266 | ETWS | ≤ 0.2
267 | MVYH | ≤ 0.2
268 | IEPY | ≤ 0.2
269 | THYD | ≤ 0.2
270 | WGSG | ≤ 0.2
271 | VWMI | ≤ 0.2
272 | GYTM | ≤ 0.2
273 | YAWI | ≤ 0.2
274 | AATA | ≤ 0.2
275 | WYPG | ≤ 0.2
276 | PGRS | ≤ 0.2
277 | DAHY | ≤ 0.2
278 | TLHE | ≤ 0.2
279 | LNQQ | ≤ 0.2
280 | HYRS | ≤ 0.2
281 | PWPR | ≤ 0.2
282 | NYMG | ≤ 0.2
283 | SVKG | ≤ 0.2
284 | FGYC | ≤ 0.2
285 | VAVV | ≤ 0.2
286 | KSSH | ≤ 0.2
287 | QEAV | ≤ 0.2
288 | QLGP | ≤ 0.2

Row | Variant | one-hybrid fitness for binding NBS DNA
289 | KNGC | ≤ 0.2
290 | TRKW | ≤ 0.2
291 | RGMS | ≤ 0.2
292 | RMTI | ≤ 0.2
293 | FWPS | 0.222
294 | FASR | ≤ 0.2
295 | HHGA | ≤ 0.2
296 | PSAS | ≤ 0.2
297 | GWLR | 0.261
298 | HGSV | ≤ 0.2
299 | STSF | ≤ 0.2
300 | RFQL | ≤ 0.2
301 | TALM | ≤ 0.2
302 | TAQS | ≤ 0.2
303 | LKYR | ≤ 0.2
304 | TNCT | ≤ 0.2
305 | QHWN | ≤ 0.2
306 | VYSE | ≤ 0.2
